Data on 99 compounds can be found in ChEMBL document CHEMBL1156829.

Structures are written as SMILES. The full ranking holds about 5,400 compounds; the median of “IFI” is about 2, and the highest 2% start at about 22. The list shows a part of the results.

This assay is described as follows: NOVARTIS: Inhibition Frequency Index (IFI) - the number of HTS assays where a compound showed > 50% inhibition/induction, expressed as a percentage of the number of assays in which the compound was tested. It is filed as functional.
For the compound `COc1ccc(-c2c[n+](CC(=O)c3cccc(OC)c3)c3n2CCC3)cc1`, the IFI is 2.5%.
As to `Nc1c(C(=O)Nc2ccc(F)cc2)sc2nc3c(c(-c4cccs4)c12)CCCCC3`, the IFI came to 8.97%.
For `COc1ccc(CNC2CCN(CCN3CCCCC3)C(c3ccc(OCc4ccccc4)cc3)C2)cc1OC` (centres undefined) the value was 11.1%; for `CCN1/C(=C/c2cccc[n+]2C)Sc2ccc(C)cc21`, 7.69%; for `CCc1ccc(C2C(C(=O)Nc3ccccc3)=C(C)Nc3c(C(=O)Nc4ccc(C)cc4)cnn32)cc1` (centres undefined), 0%.
For `CCOC(=O)C1=CN(C)C=C(C(=O)OCC)C1c1cc(Br)c(OCC)c(OC)c1` the value was 3.45%.
`CC(C)CNC(=O)c1cnc(NCCc2ccncc2)nc1NCCc1ccccc1`: the IFI is 0.962%.
Regarding `O=C(NCc1ccco1)C1CCN(S(=O)(=O)c2ccc(Cl)cc2)CC1`, the IFI is 0.885%.
The value for `COc1ccc(OC)c(-c2ccc(O)c(CNCC3CC4C=CC3C43CC3)c2)c1` (centres undefined) was 1.71%; that for `CCOC(=O)c1cnc2ccc(Cl)cc2c1Nc1ccc(OC)c(OC)c1` was 0%.
For the compound `CSc1ccccc1CN1CCc2nc(N3CCCCC3)sc2C1`, the IFI was 5.56%.
The value for `O=C(NC1CC1)C1CCN(S(=O)(=O)c2ccc(Cl)cc2)CC1` was 0%; that for `O=C(NCc1ccco1)C1CCN(S(=O)(=O)c2ccc(Br)cc2)CC1` was 0%; that for `O=C1C(=O)N(Cc2cccc3ccccc23)c2ccc(Br)cc21` was 0%.
The value for `CCOC(=O)NN=CC=NNC(=O)OCC` was 1.09%.
For `O=C(Nc1ccc(-c2nc3cc(NC(=O)C(c4ccccc4)c4ccccc4)ccc3[nH]2)cc1)C(c1ccccc1)c1ccccc1` the value was 0%.
`CCCCCCN(C(=O)c1ccc(C(C)(C)C)cc1)C(CC)c1nc2ccccc2c(=O)n1-c1ccc(F)cc1` (centres undefined): the IFI came out at 3.88%.
The value for `Cc1cccc2cc(C(c3nnnn3C3CCCC3)N3CCCC4(CCCCC4)C3)c(=O)[nH]c12` (centres undefined) was 3.88%; that for `CCC(c1nc2ccccc2c(=O)n1-c1ccc(F)c(Cl)c1)N(CCc1ccccc1)C(=O)COc1ccccc1` (centres undefined) was 1.87%.
The value for `CC1CCCCN1CCCNc1ncc(C(=O)NCC2CCCO2)c(NCCc2ccccc2)n1` (centres undefined) was 2.88%; that for `Nc1ccc(-c2nc3cc(Oc4ccc5[nH]c(-c6ccc(N)cc6)nc5c4)ccc3[nH]2)cc1` was 15.4%; that for `Clc1ccc(-c2nc3cc(Cl)cnc3[nH]2)cc1` was 0%.
The value for `CCc1ccc(O)c(-c2cc(C(=O)Nc3cccnc3)[nH]n2)c1` was 6.67%; that for `CCOCc1nnc(NC(=O)COc2ccc(Cl)cc2Cl)s1` was 0%.
As to `CC(=O)N(C1=C(N2CCN(C)CC2)C(=O)c2ccccc2C1=O)c1cc(C)cc(C)c1`, the IFI turned out to be 7.14%.
The value for `Cc1nnc2sc(SCc3ccc([N+](=O)[O-])cc3)nn2c1=O` was 0%.
Turning to `Cc1nn(CC(O)Cn2c3ccc(Cl)cc3c3cc(Cl)ccc32)c(C)c1Br` (centres undefined), the IFI came to 0%.
For `CCCc1ccc(OCCNC(=O)CCNC(=O)Nc2cccc(Cl)c2)cc1` the value was 0%; for `CCCCNC1=CC(=O)C(=O)c2ccccc21`, 15.4%; for `Oc1ccc(-c2nc(-c3ccc4oc5ccc(-c6[nH]c(-c7ccc(O)cc7)nc6-c6ccccc6)cc5c4c3)c(-c3ccccc3)[nH]2)cc1`, 0%.
For the compound `COc1cccc(N2C(=O)/C(=C/c3cccnc3)SC2=S)c1`, the IFI came out at 0%.
`O=C1NN(c2ccc(Br)cc2)C(=O)/C1=C\c1c(O)ccc2ccccc12` yielded an IFI of 0%.
With `Cn1c(=O)n(C)c2cc(C=NN=c3[nH]cc(-c4ccccc4)s3)ccc21`, the IFI came to 0%.
The value for `CC(C)CNC(=O)c1cnc(NCCCN(C)C)nc1NCC1CCCCC1` was 3.88%.
For `Fc1ccc(CCNc2ncnc3c2[nH]c2ccccc23)cc1` the value was 14.6%; for `Cc1ccc(Cn2c(N3CCC(C(=O)NCc4ccccn4)CC3)nc3ccccc32)cc1`, 0%.
The value for `Nc1ccc2nc(-c3cccc(-c4nc5ccc(N)cc5s4)c3)sc2c1` was 11.9%; that for `C=CCNC(=S)N1CCN(c2ccc([N+](=O)[O-])cc2)CC1` was 0%.
Turning to `O=C(NNc1c2ccccc2nc2ccccc12)Nc1ccccc1`, the IFI is 7.69%.
For `COc1ccc(C2=C(c3ccc(OC)cc3)C3(c4ccccc4)C(=O)C2(c2ccccc2)C2C(=O)N(c4ccc(F)cc4)C(=O)C23)cc1` (centres undefined) the value was 0%; for `CC1CCN(S(=O)(=O)c2ccc(C(=O)Nc3sc4c(c3C(N)=O)CCN(C)C4)cc2)CC1`, 0%; for `COc1ccc2nc(NC(N)=NC(=O)Nc3ccccc3)nc(C)c2c1`, 6.45%.
The value for `Cc1cc(Nc2ccc(Br)cc2)nc2ccccc12` was 7.58%; that for `Clc1ccccc1CN1CCc2nc(N3CCCCC3)sc2C1` was 6.94%; that for `Cc1cc(C)c(S(=O)(=O)NCc2ccc(Cl)cc2)c(C)c1` was 0%.
For `Cn1nc(C(F)(F)F)c(-c2ccc(F)cc2)c1NC(=O)Nc1ccccc1` the value was 4.17%; for `COCCOC(=O)C1=C(C)NC2=C(C(=O)CC(c3ccc(OC)c(OC)c3)C2)C1c1ccccc1Cl` (centres undefined), 2.33%.
In the case of `O=C1C(N2CCCCC2)=C(N2CCCCC2)C(=O)c2ccccc21`, the IFI came out at 0%.
For `CC(=O)Nc1ccc(S(=O)(=O)N2CCC(c3nc(-c4cccnc4)no3)CC2)cc1` the value was 15.8%; for `CC1=C(CC(=O)c2ccccc2)C(=O)c2ccccc2C1=O`, 7.41%.
Take `CN(C)CCNC(=O)c1c[nH]c2ccc(S(=O)(=O)N3CCc4ccccc43)cc2c1=O`: the IFI is 0%.
As to `CC(C)(C)NCC(O)COc1cccc2oc3ccccc3c12` (centres undefined), the IFI worked out at 7.69%.
For `CC1(C)N=C(N)N=C(N)N1c1ccc(I)cc1` the value was 5.97%; for `COc1ccc2oc(=O)c(C(=O)N(C)c3ccc(S(N)(=O)=O)cc3)cc2c1`, 0%.
As for `COc1ccc2[nH]c3ccccc3c(=O)c2c1`, the IFI was determined as 4.44%.
The value for `COc1cc2nc(Nc3cccc(F)c3)nc(N)c2cc1OC` was 6.25%; that for `O=C(Nc1ccccc1F)NC1CC2CCCC(C1)N2CCc1ccccc1` (centres undefined) was 1.3%; that for `COc1cccc(C(Nc2cc(C)ccn2)c2ccc3cccnc3c2O)c1` (centres undefined) was 21.4%.
For `COc1ccc(-n2nc(C(C)(C)C)cc2NC(=O)CN(C(=O)c2ccc(C(C)(C)C)cc2)C(C)C)cc1` the value was 1.87%; for `Cc1ccnc(NC(c2ccc(Cl)cc2Cl)c2ccc3cccnc3c2O)c1` (centres undefined), 15.4%; for `CN(Cc1cc(-c2ccc(F)cc2)ccc1O)CC(O)c1ccccc1` (centres undefined), 0.855%.
For `c1ccc(-c2nc3cc4nc(-c5ccccc5)[nH]c4cc3[nH]2)cc1` the value was 8.87%; for `OC(CNC1CCN(Cc2ccccc2)CC1)COc1ccc(Br)cc1` (centres undefined), 0.826%.
Take `CC[n+]1c(/C=C/N(C)c2ccccc2)n(-c2ccccc2)c2ccc(-c3nc4ccccc4s3)cc21`: the IFI amounted to 29.2%.
The value for `COc1cc(NC(C)CCCN(Cc2ccccc2OC)C(=O)Nc2ccccc2OC)c2ncccc2c1` (centres undefined) was 1.89%.
For `COc1ccccc1NC(=O)N(Cc1ccccc1)C(C)c1nc2ccccc2c(=O)n1-c1cc(C)ccc1C` (centres undefined) the value was 3.77%; for `O=C1CCC(c2ccc(Cl)c(Cl)c2)c2ccc(O)cc21` (centres undefined), 0%.
For `N#Cc1ccccc1N1CCCCC1` the value was 4.63%; for `CCOC(=O)c1c(C)nc2c(c1C)c(=O)oc1ccccc12`, 3.03%; for `O=C(/C=C/Nc1ccccc1NS(=O)(=O)c1ccc([N+](=O)[O-])cc1)c1ccccc1`, 1.18%.
`N=c1c2c(n(Cc3ccccc3)c3c1CCC3)CCC2` yielded an IFI of 4.54%.
The value for `CC(C)N(CC(=O)Nc1cc(C(C)(C)C)nn1-c1ccc(Cl)c(Cl)c1)C(=O)c1ccc(C(F)(F)F)cc1` was 1.91%.
For `COC(=O)c1ccc(NC(=O)CSc2nc3cc4c(cc3cc2C#N)OCCO4)cc1` the value was 0%; for `CN1CCN(c2ccc(Nc3ccnc4ccccc34)cc2)CC1`, 7.69%; for `CCCCCN(C(=O)c1ccc2ccccc2c1)C(CC)c1nc2ccccc2c(=O)n1-c1ccccc1OC` (centres undefined), 2.78%.
In the case of `Cc1ccc(S(=O)(=O)N=C2C=C(Sc3nnc[nH]3)C(=O)c3ccccc32)cc1`, the IFI is 25%.
For `CCOC(=O)c1cnc2ccc3c(c(C)c(C)n3C)c2c1O` the value was 0%; for `O=C1/C(=N\c2cccc(O)c2)C(N2CCCCC2)=C(O)c2ccccc21`, 0%; for `Cc1cc(Oc2ncnc(N(C)CC(=O)OC(C)(C)C)c2[N+](=O)[O-])c2nncn2n1`, 7.14%.
In turn, `COC(=O)C1C(=O)C2=C(CC1C)NC(=O)CC2c1cccc(Cl)c1Cl` (centres undefined) registered an IFI of 0%.
For `CN1C(=O)N(C)C2(c3ccccc3)NN3C(=NC12c1ccccc1)SC1=C3C(=O)c2ccccc2C1=O` (centres undefined) the value was 4.44%.
For `Nc1nc(N)c2c(OCc3ccc(C(F)(F)F)cc3)cccc2n1` the value was 7.63%; for `O=C1CN(C(=O)CCC2CCCCC2)C(c2ccc(F)cc2)c2cc(F)ccc2N1` (centres undefined), 5.88%.
The value for `Cc1ccc(NC(C)C(=O)Nc2ccc(C#N)cc2)cc1S(=O)(=O)N1CCCCC1` (centres undefined) was 6.25%; that for `COc1cc(/C=C/C(=O)Nc2ccc3nc(N4CCN(c5ncccn5)CC4)cc(C)c3c2)cc(OC)c1OC` was 11.5%.
Compound `CC1CCN(c2ncnc3sc4c(c23)CCC(C)C4)CC1` (centres undefined) registered an IFI of 2.35%.
The value for `COc1ccc(CN2CCc3nc(N4CCCCC4)sc3C2)cc1` was 9.72%.
The value for `Oc1ccc(-c2ccc3c(c2)OCO3)cc1CNC12CC3CC(CC(C3)C1)C2` was 1.79%.
With `COc1cccc(-c2ccc(O)c(CN3CCC(Cc4ccccc4)CC3)c2)n1`, the IFI came to 1.92%.
Consider `O=C(Nc1ccc(OC(F)(F)F)cc1)c1cnn2c1NC(c1cccs1)CC2C(F)(F)F` (centres undefined), for which the IFI stood at 0%.
For `CC(C)(C)c1ccc(C(=O)C[n+]2cc(-c3ccccc3)n3c2CCC3)cc1` the value was 5%; for `O=C(c1cc2n(n1)C(C(F)(F)F)CC(c1ccc3c(c1)OCO3)N2)N1CCN(C(c2ccccc2)c2ccccc2)CC1` (centres undefined), 1.16%; for `Cc1cc(N2CCN(C)CC2)nc2ccc(NC(=O)c3ccc(Br)o3)cc12`, 0%.
Turning to `CCC(O)CN(c1ccccc1)c1ccccc1` (centres undefined), the IFI amounted to 1.83%.
The value for `CCCCCCCn1c(=N)n(CC(O)c2ccc(Cl)c(Cl)c2)c2ccccc21` (centres undefined) was 9.26%; that for `CN(C)Cc1c(O)ccc2oc(Cc3ccccc3)cc12` was 0.73%; that for `CCOC(=O)C1=C(C)N=c2sc(=Cc3cccc(OCc4cccc5ccccc45)c3)c(=O)n2C1c1ccc(OC)cc1OC` (centres undefined) was 0%.
Take `COc1ccc(N2C(N)=NC(N)=NC2(C)C)cc1`: the IFI turned out to be 4.54%.
For `COc1cc(/C=C\C(=O)Nc2c3c(nn2-c2ccc(F)cc2)CSC3)cc(OC)c1OC` the value was 4.71%.
